Data reported in PMC3983036.
Where a chain is given by its changes, count along the chain named. Names and notes keep the numbering of the source. These are yes or no findings as the source states them, for the method shown. Binding seen in cells or lysates may run through a third protein. Some entries that bind do so weakly or less than the wild type. For part of these data: Tags and fused reporters may be left off the sequences shown. One block for each molecule: values may come before it.

Chains of the proteins cited; added tags and fusions are not shown.
UniProt Q9VUV9: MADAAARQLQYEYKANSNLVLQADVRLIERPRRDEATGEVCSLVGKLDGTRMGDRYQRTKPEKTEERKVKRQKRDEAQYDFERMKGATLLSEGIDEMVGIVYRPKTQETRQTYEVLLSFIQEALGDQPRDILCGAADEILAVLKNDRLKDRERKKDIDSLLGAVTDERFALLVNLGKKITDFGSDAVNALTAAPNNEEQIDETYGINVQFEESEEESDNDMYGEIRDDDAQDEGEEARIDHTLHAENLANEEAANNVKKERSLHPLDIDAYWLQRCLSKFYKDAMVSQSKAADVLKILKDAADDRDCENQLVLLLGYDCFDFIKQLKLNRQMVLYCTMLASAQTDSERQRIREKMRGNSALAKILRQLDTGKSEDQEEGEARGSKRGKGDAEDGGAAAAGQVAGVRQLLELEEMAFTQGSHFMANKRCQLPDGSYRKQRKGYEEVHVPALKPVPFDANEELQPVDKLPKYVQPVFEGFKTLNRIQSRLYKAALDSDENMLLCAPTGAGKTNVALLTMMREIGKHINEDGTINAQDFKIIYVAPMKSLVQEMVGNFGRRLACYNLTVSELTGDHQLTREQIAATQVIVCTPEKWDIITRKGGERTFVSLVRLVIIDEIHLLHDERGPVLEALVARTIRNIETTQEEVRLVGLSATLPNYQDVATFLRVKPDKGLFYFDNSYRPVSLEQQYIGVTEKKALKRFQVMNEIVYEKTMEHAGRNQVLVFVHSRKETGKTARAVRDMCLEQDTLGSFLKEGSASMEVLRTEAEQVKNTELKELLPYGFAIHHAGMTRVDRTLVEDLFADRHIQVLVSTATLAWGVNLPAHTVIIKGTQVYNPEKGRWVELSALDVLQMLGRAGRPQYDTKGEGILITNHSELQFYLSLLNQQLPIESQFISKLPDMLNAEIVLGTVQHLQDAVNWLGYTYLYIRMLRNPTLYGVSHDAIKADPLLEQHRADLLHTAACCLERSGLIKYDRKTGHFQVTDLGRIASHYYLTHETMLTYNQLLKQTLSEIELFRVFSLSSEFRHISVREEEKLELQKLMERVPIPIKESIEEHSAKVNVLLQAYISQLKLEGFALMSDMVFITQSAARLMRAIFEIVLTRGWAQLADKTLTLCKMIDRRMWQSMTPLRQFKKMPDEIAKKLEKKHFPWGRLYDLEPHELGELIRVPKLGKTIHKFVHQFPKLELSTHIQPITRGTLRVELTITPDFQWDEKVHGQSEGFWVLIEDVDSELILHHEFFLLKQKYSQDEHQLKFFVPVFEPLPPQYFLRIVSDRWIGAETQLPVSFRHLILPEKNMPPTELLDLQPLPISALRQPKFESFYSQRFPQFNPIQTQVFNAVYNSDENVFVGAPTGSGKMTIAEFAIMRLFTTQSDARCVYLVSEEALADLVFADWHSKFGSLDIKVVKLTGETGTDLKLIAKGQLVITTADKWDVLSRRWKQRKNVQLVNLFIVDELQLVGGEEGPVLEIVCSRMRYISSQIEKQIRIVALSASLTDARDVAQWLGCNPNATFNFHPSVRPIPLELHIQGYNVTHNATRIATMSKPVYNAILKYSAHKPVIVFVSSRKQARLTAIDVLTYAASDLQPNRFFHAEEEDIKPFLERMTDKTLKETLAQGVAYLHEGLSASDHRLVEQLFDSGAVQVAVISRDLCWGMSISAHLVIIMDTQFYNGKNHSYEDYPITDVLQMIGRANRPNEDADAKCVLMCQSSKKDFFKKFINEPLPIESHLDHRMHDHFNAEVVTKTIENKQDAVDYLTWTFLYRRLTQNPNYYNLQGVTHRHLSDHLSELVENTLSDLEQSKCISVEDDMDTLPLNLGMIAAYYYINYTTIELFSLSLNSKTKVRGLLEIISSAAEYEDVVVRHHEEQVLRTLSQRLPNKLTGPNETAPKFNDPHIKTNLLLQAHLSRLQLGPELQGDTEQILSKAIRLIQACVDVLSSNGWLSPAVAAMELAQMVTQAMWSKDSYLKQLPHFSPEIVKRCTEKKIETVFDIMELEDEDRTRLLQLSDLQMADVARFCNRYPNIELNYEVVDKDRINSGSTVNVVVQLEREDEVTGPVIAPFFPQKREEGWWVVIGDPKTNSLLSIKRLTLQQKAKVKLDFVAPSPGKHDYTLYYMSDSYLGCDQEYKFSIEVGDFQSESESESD

Assays:
Assay in all cases: co-IP; pairs of epitope-tagged proteins expressed in S2 cells; lysis in 50 mM Tris-HCl pH 7.8, 150 mM NaCl, 1 mM EDTA, 1% Triton X-100, 0.01% Igepal; anti-Flag magnetic beads overnight at 4°C, five washes, immunoblot by the tags; cells with Ecd^1 upshifted to 30°C for 45 min before lysis; control: empty pTFW vector
[1] = biological target: Prp8, epitope-tagged (co-immunoprecipitation of Figure 1B) (Drosophila melanogaster) (UniProt A1Z8U0)
[2] = biological target: Flag-tagged Prp8 (Drosophila) (Drosophila melanogaster) (UniProt A1Z8U0)
[3] = biological target: Flag-tagged Brr2 (Drosophila) (Drosophila melanogaster) (UniProt Q9VUV9)

- binding [1]: binds
Molecule: Brr2, epitope-tagged (co-immunoprecipitation of Figure 1B) (from UniProt Q9VUV9 1-2142)

- binding [2]: binds
- binding [3]: no binding
B1: Ecd^l(3)23 mutant protein (truncated Ecd), epitope-tagged (domain or fragment, UniProt Q9W032 1-650)
chain: MSKIPGSNLEFVREEDFVEYYIFPKIPDNVQDEGALRKLMLQIRNEISAIVREKSLERSYLWHKDEFQLQVRLGGAEERLLNEETNPEEEAELGDLPPHFHGVTHYGDNISDEWFVVYLLTEITRARGDCIARVSDSDGEFLLIEAADALPDWASPETCEQRVYLVGGHLQLLQNSAASSQDKPLTMAMAVQRIRMNPTLYRCSQEIQSCIDARLKEYQIAQPHFSIHRQVLELPHSAAQLLKQKPRLLSSAVRAFCERDSLDIKALRTMRYFPPEATRVRTNVRFTRCLYAMLSHQQYLPEKRLGWHLTDPVSEPERYKEQLLGLKLASGLEILATQAKRVEGQQLEDLPAWRSYLRSLLSKGYFRDNIEGSAEYQELLNKAKVYFRGNQERFRTASRAGAEILDLLLHPAEAASEELRDEENNLQPSDSDEWLNISAEDLDSMLQDRYGPKKLYKPNGQMNAEEFTKQLAEFLDRQSNYEGIEHRGLEEPELDSDDDEPPPQANGSTGLTAKVKKNPSMRKACQRNSVIQPEEPDSTHVRNFLDFVIPEDNWDSTSEMSDYADEDDMESNLNALSGGGSVFPLDRQIQSYMEQMDRELAQTSVGKSFHGKKKTAPQADEDDFDDIEDFEPININVNTLRNMMDSYQSQ

- binding [2]: binds
B2: Ecd, epitope-tagged (co-immunoprecipitation of Figure 1C) (protein, UniProt Q9W032 1-684)
chain: MSKIPGSNLEFVREEDFVEYYIFPKIPDNVQDEGALRKLMLQIRNEISAIVREKSLERSYLWHKDEFQLQVRLGGAEERLLNEETNPEEEAELGDLPPHFHGVTHYGDNISDEWFVVYLLTEITRARGDCIARVSDSDGEFLLIEAADALPDWASPETCEQRVYLVGGHLQLLQNSAASSQDKPLTMAMAVQRIRMNPTLYRCSQEIQSCIDARLKEYQIAQPHFSIHRQVLELPHSAAQLLKQKPRLLSSAVRAFCERDSLDIKALRTMRYFPPEATRVRTNVRFTRCLYAMLSHQQYLPEKRLGWHLTDPVSEPERYKEQLLGLKLASGLEILATQAKRVEGQQLEDLPAWRSYLRSLLSKGYFRDNIEGSAEYQELLNKAKVYFRGNQERFRTASRAGAEILDLLLHPAEAASEELRDEENNLQPSDSDEWLNISAEDLDSMLQDRYGPKKLYKPNGQMNAEEFTKQLAEFLDRQSNYEGIEHRGLEEPELDSDDDEPPPQANGSTGLTAKVKKNPSMRKACQRNSVIQPEEPDSTHVRNFLDFVIPEDNWDSTSEMSDYADEDDMESNLNALSGGGSVFPLDRQIQSYMEQMDRELAQTSVGKSFHGKKKTAPQADEDDFDDIEDFEPININVNTLRNMMDSYQSQVGGAGPVSNLFSAMGVGMSAVEDKEQKDISESAV

- binding [2]: binds
- binding [3]: no binding
B3: Ecd^1 mutant protein (P656S), epitope-tagged (protein, UniProt Q9W032 1-684)
chain: B2 chain with P656S
